Measurements: PubChem BioAssay AID360 (National Center for Advancing Translational Sciences (NCATS), 2006)
Screen size: about 48,000 compounds; about 550 (1.1%) were called active. About 4% were inconclusive and are not listed. Cut-off read from the data, not from the text of the source: active = potency below about 15 µM; inconclusive = mostly about 16 µM to 33 µM; inactive = weaker than that. This is one part of the list.

What follows are molecules tested against Lysosomal acid glucosylceramidase (Homo sapiens) (UniProt P04062) (assay: Glucocerebrosidase). Conditions: purified enzyme, resorufin glucoside fluorescence (screen aimed at inhibitors), 20 min.
UniProt P04062, sequence (P04062 whole entry, looked up): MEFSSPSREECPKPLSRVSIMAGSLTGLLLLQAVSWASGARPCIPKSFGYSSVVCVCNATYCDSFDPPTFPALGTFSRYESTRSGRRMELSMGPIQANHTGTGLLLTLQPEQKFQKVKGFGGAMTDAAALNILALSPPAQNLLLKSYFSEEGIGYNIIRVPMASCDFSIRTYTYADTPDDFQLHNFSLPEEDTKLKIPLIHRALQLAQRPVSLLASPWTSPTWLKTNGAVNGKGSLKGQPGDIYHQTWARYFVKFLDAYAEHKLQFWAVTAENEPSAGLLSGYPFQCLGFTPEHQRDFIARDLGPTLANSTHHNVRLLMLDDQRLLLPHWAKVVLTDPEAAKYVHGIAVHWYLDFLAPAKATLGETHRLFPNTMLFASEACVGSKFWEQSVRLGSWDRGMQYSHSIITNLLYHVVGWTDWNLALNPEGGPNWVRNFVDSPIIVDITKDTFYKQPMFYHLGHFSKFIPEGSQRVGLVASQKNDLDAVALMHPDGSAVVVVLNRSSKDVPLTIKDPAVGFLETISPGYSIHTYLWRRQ
In short: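 Wild-type enzyme at 0.2 nM final in 50mM citric acid/KH2PO4, 10mM sodium taurocholate, 0.01% tween-20, pH 5.9, with resorufin beta-D-glucopyranoside at 30 uM final. Compounds titrated, 20 min at RT, red fluorescence read; AC50 from titration.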
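Note: the screen sought inhibitors.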
Potency is the fitted concentration of half-maximal effect.

Potency, inactive:
O=C1c2ccccc2C(=O)N1CCCOc1ccccc1 > 76.9 µM
CC(CCc1ccco1)NC(=O)Nc1cccc(F)c1 (configuration not stated) > 76.9 µM
COc1cc(CC(=O)OCC(=O)Nc2ncc(Cl)cc2Cl)cc(OC)c1OC > 76.9 µM
CS(=O)(=O)N1CCC(C(=O)NCC2CCCO2)CC1 (configuration not stated) > 76.9 µM
CCn1c(=O)n(CCOC)c(=O)c2c3c(sc21)CCCC3 > 76.9 µM
Cn1cccc1Cc1nnc(SCC(=O)NCc2ccco2)n1CCc1ccccc1 > 76.9 µM
CCOC(=O)C1CCN(C(=O)CNS(=O)(=O)c2ccc(Br)s2)CC1 > 76.9 µM
COC(=O)c1ccccc1NC(=O)c1cc(-c2cccs2)on1 > 76.9 µM
Cc1cncn1CCc1nc2c3ccccc3nc(=S)n2[nH]1 > 76.9 µM
O=C(NCc1ccco1)Nc1ccc(Br)cc1Cl > 76.9 µM
CC(=O)c1ccc(NC(=O)C2CC(c3ccc(F)cc3)=NO2)cc1 (configuration not stated) > 76.9 µM
CCOC(=O)C(C(C)=O)=C1SC2CS(=O)(=O)CC2S1 (configuration not stated) > 76.9 µM
COc1cccc(C(=O)N(CN2CCCC2=O)c2cccc(Cl)c2)c1 > 76.9 µM
COc1cccc(-c2noc(C3CCCN(C(=O)Cc4ccccc4)C3)n2)c1 (configuration not stated) > 76.9 µM
COc1ccccc1N1CC(O)=C(c2nc3ccccc3s2)C1=N > 76.9 µM
COc1ccc(C2(C(=O)NC(C)C)CCCC2)cc1OC > 76.9 µM
CSc1nc2ccccc2n1C(=O)NC1CCCCC1 > 76.9 µM
Nc1c(C(=O)NC2CCCCC2)c2nc3ccccc3nc2n1/N=C/c1ccco1 > 76.9 µM
COc1ccccc1-n1c(=O)oc2ccc(Cl)cc2c1=O > 76.9 µM
CS(=O)(=O)Nc1ccc2c(c1)nc1n2CCOC1 > 76.9 µM
O=C(c1ccc2c(c1)[nH]c(=S)n1c3ccccc3nc21)N1CCN(c2ncccn2)CC1 > 76.9 µM
CCOC(=O)c1c(NC(=O)CSc2nnc(-c3ccccc3C)n2C)sc(C(C)=O)c1C > 76.9 µM
C=C(C)c1cccc(C(C)(C)NC(=O)N2CCN(C)CC2)c1 > 76.9 µM
O=C(OCc1cc2ccccc2[nH]c1=O)C1CCCO1 (configuration not stated) > 76.9 µM
CN(C(=O)COC(=O)COc1ccccc1F)C1CCS(=O)(=O)C1 (configuration not stated) > 76.9 µM
CCCCCNC(CC(=O)Nc1ccc(OC)cc1)C(=O)O (configuration not stated) > 76.9 µM
Cc1ccc(NC(=O)Cn2cccc2)cc1Cl
CN(C)C(=O)Cn1c(SCC(=O)NC2CCCCC2)nc2ccccc21 > 76.9 µM
CCCCCn1c(=S)[nH]c2ncccc2c1=O > 76.9 µM
Cc1ccc2cc(-c3noc(C(C)(C)C)n3)c(=O)[nH]c2c1 > 76.9 µM
CCS(=O)(=O)N1CCC(C(=O)NCCCN2CCCCCC2)CC1 > 76.9 µM
CC(=O)Oc1cccc(N2C(=O)CC(Nc3ccc(N4CCOCC4)cc3)C2=O)c1 (configuration not stated) > 76.9 µM
CCOC(=O)c1sc(NC(=O)CSc2nc3c(cc2C#N)CCC3)c(C#N)c1C > 76.9 µM
Cc1ccc(C)c(N(C(=O)Cn2nnc3ccccc32)C(C(=O)NCc2ccco2)c2ccncc2)c1 (configuration not stated) > 76.9 µM
Cc1ccc(CS(=O)(=O)CCC(=O)NCCCN2CCCC2)cc1 > 76.9 µM
Cc1c(F)cccc1NC(=O)CCC(=O)O > 76.9 µM
Cc1ccc(CNC(=O)COC(=O)c2c(C)noc2C)cc1 > 76.9 µM
CN(Cc1ccccc1)c1nc2c(c(=O)[nH]c(=O)n2C)n1Cc1ccccc1Cl > 76.9 µM
CCc1cc2ccccc2nc1SCC(=O)N1CCN(C(=O)c2ccco2)CC1 > 76.9 µM
CC1CCCC(NS(=O)(=O)c2ccc3c(c2)OCCO3)C1C (configuration not stated)
O=C(c1ccc2c(c1)OCCO2)C1CCN(S(=O)(=O)c2ccc(F)cc2)CC1 > 76.9 µM
O=C(Nc1nccs1)c1ccc(COc2ccccc2Br)o1 > 76.9 µM
S=C1SCN(CCN2CCOCC2)CN1Cc1ccccc1 > 76.9 µM
CC1(C)CC(=O)C2=C(C1)N(Cc1ccco1)C(=O)C2(NC(=O)C1CCCCC1)C(F)(F)F (configuration not stated) > 76.9 µM
Cc1nc(SCc2nnc(-c3ccc(Cl)cc3)o2)c2c3c(sc2n1)CCC3 > 76.9 µM
COc1ccc(OCc2nnc(SCC(=O)O)n2N)cc1 > 76.9 µM
N#CC1=C(N)Oc2n[nH]c(-c3ccncc3)c2C1c1ccsc1 (configuration not stated) > 76.9 µM
Cc1ccc(NC(=O)CSc2nnc(C3CCCCC3)n2N)cc1F > 76.9 µM
C=CCN=C1SCC(=O)N1S(=O)(=O)c1ccccc1 > 76.9 µM
CCCn1c(SCC(=O)N2CCCCC2)nnc1-c1ccco1 > 76.9 µM
CCOC(=O)c1cnn(-c2nc3sc4c(c3c(=O)[nH]2)CCCC4)c1N > 76.9 µM
O=C(NC12CC3CC(CC(C3)C1)C2)C1CCCN1C(=O)NC1CCCCC1 (configuration not stated) > 76.9 µM
COc1ccc2c(CC(=O)N(C)CC3COc4ccccc4O3)coc2c1 (configuration not stated) > 76.9 µM
Cc1ccc(-n2c(CNc3ccc(F)cc3)nnc2SCC(=O)N2CCCC2)cc1 > 76.9 µM
O=C(NCCc1ccccc1)C1CC(c2ccccc2O)=NO1 (configuration not stated) > 76.9 µM
COc1ccc(NC(=O)c2ccc3c(c2)C(=O)N(Cc2cccnc2)C3=O)cc1 > 76.9 µM
CC(=O)N1CCc2cc(Br)cc(S(=O)(=O)NCc3ccccn3)c21 > 76.9 µM
COc1ccc(-n2ncc3c(N4CCCc5ccccc54)ncnc32)cc1 > 76.9 µM
O=C1/C(=N/n2cnnc2)c2ccccc2N1Cc1ccccc1 > 76.9 µM
COc1ccccc1CN1CCN(C(CC(C)C)c2nnnn2Cc2cccs2)CC1 (configuration not stated) > 76.9 µM
CCN(CCCNC(=O)C1CCN(S(=O)(=O)CC)CC1)c1cccc(C)c1 > 76.9 µM
CC(NC(=O)Nc1ccccc1O)(C(F)(F)F)C(F)(F)F > 76.9 µM
COC(=O)c1cc(OC)c(OC)cc1NC(=O)c1cnccn1 > 76.9 µM
CCn1c(SCC(=O)Nc2cc(C)on2)nc2c1c(=O)n(C)c(=O)n2C > 76.9 µM
Cc1cc(C)nc(N(C#N)S(=O)(=O)c2ccccc2)n1 > 76.9 µM
O=C(C1CCN(C2CC(=O)N(c3ccc(Cl)cc3)C2=O)CC1)N1CCOCC1 (configuration not stated) > 76.9 µM
Cc1nn(Cc2ccccc2)c(Cl)c1C(=O)OC1CCOC1=O (configuration not stated) > 76.9 µM
CCOc1ccccc1NC(=O)c1ccc2nccnc2c1 > 76.9 µM
COc1ccc(-c2nnc3n2N=C(C)CS3)cc1OC > 76.9 µM
CCOC(=O)N1CCN(S(=O)(=O)Cc2ccccc2)CC1 > 76.9 µM
CCn1c(SCC(=O)NCCOC)nc2sc3c(c2c1=O)CCCC3 > 76.9 µM
Cc1c(NC(=O)CN2C(=O)c3cccc4cccc2c34)c(=O)n(-c2ccccc2)n1C > 76.9 µM
COc1cccc(-c2cc(C(=O)NCc3ccc(Cl)cc3)no2)c1 > 76.9 µM
CCCCn1c(N)c(Sc2ccc(C)cc2)c(=O)[nH]c1=O > 76.9 µM
O=C(NCCc1ccccc1)c1cc2ncc(Br)cn2n1 > 76.9 µM
O=C(NCc1ccc2c(c1)OCO2)c1cc(S(=O)(=O)N2CCCCC2)ccc1F > 76.9 µM
O=C(Nc1ccc(Cl)cn1)Nc1cccs1 > 76.9 µM
Cc1cc(N2CCOCC2)nc(SCC(=O)c2ccccc2)n1 > 76.9 µM
COc1ccc(OCc2nn3c(Cn4cnc5ccccc54)nnc3s2)cc1 > 76.9 µM
O=C1CCCN1c1ccc(S(=O)(=O)N2CCN(c3ccccn3)CC2)cc1 > 76.9 µM
O=C(NCc1ccco1)C(NS(=O)(=O)c1cccc2nsnc12)c1ccccc1 (configuration not stated) > 76.9 µM
CCOC(=O)c1cc2c(=O)n(C)c3ccccc3c2s1 > 76.9 µM
CN1CCc2c(sc3c2C(=O)NC(c2cccs2)N3)C1 (configuration not stated) > 76.9 µM
CC(=O)OC1=C(C#N)Cn2ccc3cccc1c32 > 76.9 µM
CCCSc1nnc2[nH]c(=O)cc(N)n12 > 76.9 µM
Cc1ccc2[nH]c(=O)c(CN(CC3CCCO3)C(=O)c3ccco3)cc2c1 (configuration not stated) > 76.9 µM
O=C(CN1C(=O)c2ccccc2S1(=O)=O)N1CCOCC1 > 76.9 µM
CSCC[C@H](NC(=O)OC(C)(C)C)c1nnc(SCC=C(C)C)o1 > 76.9 µM
O=C(Cn1cnc2c(nnn2Cc2ccc(F)cc2)c1=O)NC1CCCC1 > 76.9 µM
O=c1cc(-c2ccccc2)nc2nc(COc3ccccc3)[nH]n12 > 76.9 µM
COCCCNc1ncnc2c1cnn2-c1ccc(C)cc1C > 76.9 µM
COc1ccc(N2C(=O)CSC23C(=O)N2CCCc4cccc3c42)cc1 (configuration not stated) > 76.9 µM
